We go through one compound from paper PMC10870044, “The Interplay Between HIF‐1α and EZH2 in Lung Cancer and Dual‐Targeted Drug Therapy” (Advanced Science, 2023).

In the test the test system is EZH2. As to conditions: A549 and H460 cell lines; EZH2 protein expression not affected.

Take `COc1cc2c(cc1O)CC[C@@H]1[C@@H]2CC[C@]2(C)[C@@H](O)CC[C@@H]12` [2‐ME2, 2‐methoxy estradiol]: the “level of the EZH2 substrate H3K27me3” value is “increase in the level of the EZH2 substrate H3K27me3”.
